Test results from the supplement of paper PMC10369915.
Some of the results follow. Cut-off read from the data, not from the text of the source: active = 3.2 or more and inactive = the rest. Only a few entries rise above the background.

B1: PLP1_Y50_Y50C_YF (peptide)
chain: KLIETCFSKNF
B2: PLP1_Y50_YF (peptide)
chain: KLIETYFSKNF
B3: PLPP7_Y172_T174M (peptide)
chain: KRRGPYEMSPS
B4: PLXNA2_Y293 (peptide)
chain: PKFHSYVSLPF
B5: PLXNA2_Y293_K289M (peptide)
chain: PMFHSYVSLPF
B6: PLXND1_Y616_P617S (peptide)
chain: DVRQEYSGMIL
B7: PMM2_Y145_F144L (peptide)
chain: ERIELYELDKK
B8: PMM2_Y145_R141C (peptide)
chain: ECIEFYELDKK
B9: PMM2_Y76_Y76C (peptide)
chain: NGLVACKDGKL
B10: PMP22_Y153 (peptide)
chain: LSGVIYVILRK
B11: PMP22_Y153_S149R (peptide)
chain: LRGVIYVILRK
B12: PMS2_Y181 (peptide)
chain: NIKKEYAKMVQ
B13: PMS2_Y181_A182T (peptide)
chain: NIKKEYTKMVQ
B14: PNMT_Y256 (peptide)
chain: RDLRTYIMPAH
B15: POC5_Y37 (peptide)
chain: EELLHYAIVTP
B16: POLD1_Y809 (peptide)
chain: ISKKRYAGLLF
B17: POLD1_Y809_R808H (peptide)
chain: ISKKHYAGLLF
B18: POLR1C_Y33 (peptide)
chain: DFPGNYSGYDD
B19: POLR2A_Y1109 (peptide)
chain: LNTFHYAGVSA
B20: POLR3A_Y714_K713N (peptide)
chain: LLKANYELLNA
B21: POM121C_Y378 (peptide)
chain: SLTGAYTSGIP
B22: POM121C_Y378_T379A (peptide)
chain: SLTGAYASGIP
B23: POMT1_Y581 (peptide)
chain: DTNIAYWLHPR
B24: POMT1_Y581_W582C (peptide)
chain: DTNIAYCLHPR
B25: POR_Y564 (peptide)
chain: ETLLYYGCRRS
B26: POR_Y564_C566Y (peptide)
chain: ETLLYYGYRRS
B27: POR_Y573_Y575C (peptide)
chain: RSDEDYLCREE
B28: POR_Y575_Y575C_YF (peptide)
chain: DEDFLCREELA
B29: POR_Y604_V605F (peptide)
chain: QSHKVYFQHLL
B30: PPFIBP2_Y663_R658G (peptide)
chain: GRMLQYLTVND
B31: PPIG_Y320 (peptide)
chain: SQPASYQRRLL
B32: PPP1CB_Y254 (peptide)
chain: VVEDGYEFFAK
B33: PPP2CA_Y127_Q122H (peptide)
chain: HITQVYGFYDE
B34: PPP2CA_Y127_Y127C (peptide)
chain: QITQVCGFYDE
B35: PPP2CA_Y127_Y127C_YF (peptide)
chain: QITQVCGFFDE
B36: PPP2CA_Y127_YF (peptide)
chain: QITQVYGFFDE
B37: PPP2CA_Y265 (peptide)
chain: FSAPNYCYRCG

Target: SHP2 C-SH2 domain E139D
Experiment: enrichment score (SH2-bound / input frequency) (ratio); bacterial display of known human phosphotyrosine sites (pTyr-Var adds point mutants) read by sequencing; higher = stronger binding; tyrosines were phosphorylated by kinases first
Conditions: peptide library: pTyr-Var
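Note: displayed peptides selected on beads carrying the immobilized SH2 domain, with library peptides lacking any tyrosine serving as negative controls.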

| Binder | enrichment score |
| --- | --- |
| B1 | inactive: 0.863 |
| B2 | inactive: 1.18 |
| B3 | inactive: 0.281 |
| B4 | inactive: 1.55 |
| B5 | inactive: 1.51 |
| B6 | inactive: 0.702 |
| B7 | inactive: 0.621 |
| B8 | inactive: 0.827 |
| B9 | inactive: 0.689 |
| B10 | inactive: 0.862 |
| B11 | inactive: 0.43 |
| B12 | inactive: 0.651 |
| B13 | inactive: 0.804 |
| B14 | inactive: 1.14 |
| B15 | inactive: 1.1 |
| B16 | inactive: 0.568 |
| B17 | inactive: 2.87 |
| B18 | inactive: 0.666 |
| B19 | inactive: 1.07 |

| Binder | enrichment score |
| --- | --- |
| B20 | inactive: 1.13 |
| B21 | inactive: 0.701 |
| B22 | inactive: 0.711 |
| B23 | inactive: 0.784 |
| B24 | inactive: 0.886 |
| B25 | inactive: 0.209 |
| B26 | inactive: 0.308 |
| B27 | inactive: 0.721 |
| B28 | inactive: 0.453 |
| B29 | inactive: 1.31 |
| B30 | inactive: 1.32 |
| B31 | inactive: 0.325 |
| B32 | inactive: 0.71 |
| B33 | inactive: 1.2 |
| B34 | inactive: 0.768 |
| B35 | inactive: 1.52 |
| B36 | inactive: 1.53 |
| B37 | inactive: 1.39 |

Target: SHP2 C-SH2 domain wild-type
Experiment: as above
Conditions: peptide library: pTyr-Var

| Binder | enrichment score |
| --- | --- |
| B1 | inactive: 1.04 |
| B2 | inactive: 0.993 |
| B3 | inactive: 0.192 |
| B4 | inactive: 1.76 |
| B5 | inactive: 1.8 |
| B6 | inactive: 0.557 |
| B7 | inactive: 0.641 |
| B8 | inactive: 1.1 |
| B9 | inactive: 0.561 |
| B10 | inactive: 0.767 |
| B11 | inactive: 0.268 |
| B12 | inactive: 0.623 |
| B13 | inactive: 0.881 |
| B14 | inactive: 1 |
| B15 | inactive: 2.36 |
| B16 | inactive: 0.619 |
| B17 | active: 5.39 |
| B18 | inactive: 0.789 |
| B19 | inactive: 1.11 |

| Binder | enrichment score |
| --- | --- |
| B20 | inactive: 1.12 |
| B21 | inactive: 0.718 |
| B22 | inactive: 0.572 |
| B23 | inactive: 0.823 |
| B24 | inactive: 1.38 |
| B25 | inactive: 0.282 |
| B26 | inactive: 0.208 |
| B27 | inactive: 0.761 |
| B28 | inactive: 0.691 |
| B29 | inactive: 0.975 |
| B30 | inactive: 1.09 |
| B31 | inactive: 0.247 |
| B32 | inactive: 0.622 |
| B33 | inactive: 1.45 |
| B34 | inactive: 0.856 |
| B35 | inactive: 1.33 |
| B36 | inactive: 1.27 |
| B37 | inactive: 1.41 |

Target: SHP2 N-SH2 domain L43F
Experiment: as above
Conditions: peptide library: pTyr-Var

| Binder | enrichment score |
| --- | --- |
| B1 | inactive: 0.855 |
| B2 | inactive: 0.956 |
| B3 | inactive: 0.237 |
| B4 | inactive: 1.64 |
| B5 | inactive: 1.67 |
| B6 | inactive: 0.503 |
| B7 | inactive: 0.772 |
| B8 | inactive: 0.854 |
| B9 | inactive: 0.567 |
| B10 | inactive: 0.548 |
| B11 | inactive: 0.226 |
| B12 | inactive: 0.668 |
| B13 | inactive: 0.614 |
| B14 | inactive: 1.62 |
| B15 | inactive: 2.91 |
| B16 | inactive: 0.595 |
| B17 | inactive: 2.65 |
| B18 | inactive: 0.626 |
| B19 | inactive: 0.896 |

| Binder | enrichment score |
| --- | --- |
| B20 | inactive: 0.982 |
| B21 | inactive: 0.738 |
| B22 | inactive: 0.75 |
| B23 | inactive: 0.824 |
| B24 | inactive: 0.901 |
| B25 | inactive: 0.377 |
| B26 | inactive: 0.228 |
| B27 | inactive: 0.823 |
| B28 | inactive: 0.51 |
| B29 | inactive: 1.15 |
| B30 | inactive: 3.02 |
| B31 | inactive: 0.352 |
| B32 | inactive: 0.587 |
| B33 | inactive: 1.13 |
| B34 | inactive: 0.581 |
| B35 | inactive: 1.06 |
| B36 | inactive: 1.44 |
| B37 | inactive: 1.37 |

Target: SHP2 N-SH2 domain T42A
Experiment: as above
Conditions: peptide library: pTyr-Var

| Binder | enrichment score |
| --- | --- |
| B1 | inactive: 0.786 |
| B2 | inactive: 0.758 |
| B3 | inactive: 0.252 |
| B4 | active: 3.86 |
| B5 | active: 4.84 |
| B6 | inactive: 0.685 |
| B7 | inactive: 0.549 |
| B8 | inactive: 0.873 |
| B9 | inactive: 0.501 |
| B10 | inactive: 0.968 |
| B11 | inactive: 0.172 |
| B12 | inactive: 0.632 |
| B13 | inactive: 0.699 |
| B14 | inactive: 1.9 |
| B15 | inactive: 2.85 |
| B16 | inactive: 1.2 |
| B17 | active: 5.2 |
| B18 | inactive: 0.876 |
| B19 | inactive: 1.24 |

| Binder | enrichment score |
| --- | --- |
| B20 | inactive: 1.26 |
| B21 | inactive: 0.616 |
| B22 | inactive: 0.557 |
| B23 | inactive: 1.11 |
| B24 | inactive: 1.07 |
| B25 | inactive: 0.219 |
| B26 | inactive: 0.264 |
| B27 | inactive: 0.48 |
| B28 | inactive: 0.714 |
| B29 | inactive: 0.68 |
| B30 | active: 3.8 |
| B31 | inactive: 0.298 |
| B32 | inactive: 0.623 |
| B33 | inactive: 1.26 |
| B34 | inactive: 0.743 |
| B35 | inactive: 1.04 |
| B36 | inactive: 1.2 |
| B37 | inactive: 1.24 |

Target: SHP2 N-SH2 domain T52S
Experiment: as above
Conditions: peptide library: pTyr-Var

| Binder | enrichment score |
| --- | --- |
| B1 | inactive: 0.817 |
| B2 | inactive: 0.853 |
| B3 | inactive: 0.192 |
| B4 | inactive: 1.35 |
| B5 | inactive: 1.57 |
| B6 | inactive: 0.538 |
| B7 | inactive: 0.663 |
| B8 | inactive: 0.8 |
| B9 | inactive: 0.611 |
| B10 | inactive: 0.631 |
| B11 | inactive: 0.344 |
| B12 | inactive: 0.645 |
| B13 | inactive: 0.783 |
| B14 | inactive: 1.78 |
| B15 | active: 3.35 |
| B16 | inactive: 0.705 |
| B17 | inactive: 3.16 |
| B18 | inactive: 0.744 |
| B19 | inactive: 0.999 |

| Binder | enrichment score |
| --- | --- |
| B20 | inactive: 1.09 |
| B21 | inactive: 0.796 |
| B22 | inactive: 0.607 |
| B23 | inactive: 0.847 |
| B24 | inactive: 0.984 |
| B25 | inactive: 0.265 |
| B26 | inactive: 0.287 |
| B27 | inactive: 0.7 |
| B28 | inactive: 0.504 |
| B29 | inactive: 0.943 |
| B30 | active: 3.65 |
| B31 | inactive: 0.278 |
| B32 | inactive: 0.723 |
| B33 | inactive: 1.2 |
| B34 | inactive: 0.429 |
| B35 | inactive: 1.41 |
| B36 | inactive: 1.44 |
| B37 | inactive: 1.32 |

Target: SHP2 N-SH2 domain wild-type
Experiment: as above
Conditions: peptide library: pTyr-Var

| Binder | enrichment score |
| --- | --- |
| B1 | inactive: 1.17 |
| B2 | inactive: 0.828 |
| B3 | inactive: 0.237 |
| B4 | inactive: 0.99 |
| B5 | inactive: 1.22 |
| B6 | inactive: 0.862 |
| B7 | inactive: 0.784 |
| B8 | inactive: 1.06 |
| B9 | inactive: 0.653 |
| B10 | inactive: 0.723 |
| B11 | inactive: 0.255 |
| B12 | inactive: 0.717 |
| B13 | inactive: 0.626 |
| B14 | inactive: 1.05 |
| B15 | inactive: 1.18 |
| B16 | inactive: 0.494 |
| B17 | inactive: 1.92 |
| B18 | inactive: 0.941 |
| B19 | inactive: 1.24 |

| Binder | enrichment score |
| --- | --- |
| B20 | inactive: 1.24 |
| B21 | inactive: 0.74 |
| B22 | inactive: 0.656 |
| B23 | inactive: 0.903 |
| B24 | inactive: 1.33 |
| B25 | inactive: 0.433 |
| B26 | inactive: 0.325 |
| B27 | inactive: 0.758 |
| B28 | inactive: 0.608 |
| B29 | inactive: 1.09 |
| B30 | inactive: 1.11 |
| B31 | inactive: 0.428 |
| B32 | inactive: 0.51 |
| B33 | inactive: 1.93 |
| B34 | inactive: 1.19 |
| B35 | inactive: 1.49 |
| B36 | inactive: 1.97 |
| B37 | inactive: 1.25 |
